Measured values reported in article PMC4336329 (PLoS ONE, 2015).
Screen size: about 310,000 compounds; about 14,000 (4.5%) showed an effect of 50% or more. Effects have a minus sign here. The list shows a part of the results.

biological target: human ether-à-go-go-related gene (hERG) potassium channel (human, UniProt Q12809); assay: primary screen, population patch clamp on CHO cells stably expressing hERG
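Note: peak tail current of the secondary pulse compared with the same well before compound.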

human ether-à-go-go-related gene (hERG) potassium channel, sequence (Q12809 whole entry, looked up): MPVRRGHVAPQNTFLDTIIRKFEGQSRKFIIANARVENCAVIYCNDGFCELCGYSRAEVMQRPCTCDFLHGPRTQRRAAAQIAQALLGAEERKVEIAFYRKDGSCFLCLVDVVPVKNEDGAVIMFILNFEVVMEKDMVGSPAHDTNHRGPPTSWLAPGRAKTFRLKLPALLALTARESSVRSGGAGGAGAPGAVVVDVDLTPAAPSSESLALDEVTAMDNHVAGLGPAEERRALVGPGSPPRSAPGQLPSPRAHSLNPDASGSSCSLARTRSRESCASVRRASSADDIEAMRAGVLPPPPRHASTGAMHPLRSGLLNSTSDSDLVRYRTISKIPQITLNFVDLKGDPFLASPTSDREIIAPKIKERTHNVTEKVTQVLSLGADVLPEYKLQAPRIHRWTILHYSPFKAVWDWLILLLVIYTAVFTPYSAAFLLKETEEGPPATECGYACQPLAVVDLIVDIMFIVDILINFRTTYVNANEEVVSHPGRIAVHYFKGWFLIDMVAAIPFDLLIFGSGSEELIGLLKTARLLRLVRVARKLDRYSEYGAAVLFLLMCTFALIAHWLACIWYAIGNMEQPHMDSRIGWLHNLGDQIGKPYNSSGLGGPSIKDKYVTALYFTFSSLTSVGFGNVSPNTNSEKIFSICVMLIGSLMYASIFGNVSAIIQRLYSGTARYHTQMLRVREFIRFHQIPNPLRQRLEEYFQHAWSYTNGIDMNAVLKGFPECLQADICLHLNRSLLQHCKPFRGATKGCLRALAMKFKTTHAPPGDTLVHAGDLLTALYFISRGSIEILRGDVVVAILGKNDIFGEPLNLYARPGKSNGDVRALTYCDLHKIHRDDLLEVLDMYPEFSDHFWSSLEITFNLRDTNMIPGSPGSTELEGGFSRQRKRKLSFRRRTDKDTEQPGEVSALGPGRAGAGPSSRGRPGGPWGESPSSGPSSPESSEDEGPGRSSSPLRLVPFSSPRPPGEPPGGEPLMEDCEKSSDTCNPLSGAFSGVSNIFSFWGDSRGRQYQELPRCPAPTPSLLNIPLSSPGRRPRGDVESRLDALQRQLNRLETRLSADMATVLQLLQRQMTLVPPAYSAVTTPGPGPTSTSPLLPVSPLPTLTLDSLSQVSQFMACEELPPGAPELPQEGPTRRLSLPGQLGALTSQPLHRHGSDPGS

| Structure (SMILES) | hERG current change (%, negative = inhibition) at 10uM |
| --- | --- |
| Cc1ccc(N=C2NC(=O)C(CC(=O)NCc3ccccc3)S2)cc1C (stereo not drawn) | -11.7% |
| CCN(Cc1ccccc1)S(=O)(=O)c1ccc(C(=O)N(CCCN(C)C)c2nc3ccc(F)cc3s2)cc1.Cl | -12.6% |
| Cc1ccc(C(C(=O)NC(C)(C)C)N(C(=O)c2csnn2)c2ccccc2F)o1 (stereo not drawn) | -9.84% |
| Cc1nnc(NC(=O)C(C)Oc2ccc3c(C)cc(=O)oc3c2)s1 (stereo not drawn) | 13.2% |
| Cc1cccc(NC(=S)N(CCCN(C)C)Cc2cc3cc4c(cc3[nH]c2=O)OCO4)c1 | -52.7% |
| C=CCn1c(O)c(N=NC(=O)CNC(=O)Cc2ccccc2)c2ccccc21 | -7.12% |
| COc1cccc(NC(=O)CN(C)C(=O)c2cccc(S(=O)(=O)Nc3ccccc3OC)c2)c1 | -9.41% |
| O=C(Nc1ccc(F)cc1F)N1CCCC(c2nc(-c3ccc(F)cc3)no2)C1 (stereo not drawn) | -27.4% |
| Cn1c(=O)c2c(nc(-c3ccccc3)n2C)n(Cc2ccccc2)c1=O | -9.47% |
| CCN(CC(=O)NC1CCCC1)S(=O)(=O)c1ccc(F)cc1 | 5.15% |
| CCS(=O)(=O)Nc1ccc(Cc2ccc(NS(=O)(=O)CC)cc2)cc1 | -7.91% |
| COc1ccccc1NC(=O)CNS(=O)(=O)c1ccccc1 | -6.94% |
| Cc1cccc(C)c1NC(=O)COC(=O)c1cc[n+]([O-])cc1 | -0.504% |
| COc1ccc(C2CCCN2C(=S)Nc2ccccc2C)cc1OC (stereo not drawn) | 3.21% |
| CCc1cccc(CC)c1-n1c(-c2cccnc2)n[nH]c1=S | 18.1% |
| CC(=O)Nc1ccc(NC(=O)CCn2nnc3ccccc32)cc1 | -2.54% |
| O=C(CCCCn1c(=O)c2ccccc2n(Cc2ccccc2)c1=O)NC1CCN(Cc2ccccc2)CC1 | -67.9% |
| Oc1cccc(Nc2ccccc2)c1 | 12.1% |
| Cc1cc(C(=O)N/N=C/c2cc([N+](=O)[O-])ccc2O)c2ccccc2n1 | 6.35% |
| CCCCCN1CC(O)=C(c2ccccc2)C1=N | 3.99% |
| COc1cc(CC(=O)OCC(=O)N2C(C)CCCC2C)cc(OC)c1OC (stereo not drawn) | 21% |
| CC(=O)c1cccc(NC(=O)c2ccc(N(Cc3ccccc3C)S(C)(=O)=O)cc2)c1 | -13.5% |
| O=C(O)Cc1ccc(NC(=O)C(c2ccccc2)c2ccccc2)cc1 | 34.8% |

| Structure (SMILES) | hERG current change (%, negative = inhibition) at 10uM |
| --- | --- |
| COc1cccc(COC(=O)Nc2ccccc2F)c1 | -13.1% |
| Cc1cc(C)n2c(SCc3cccs3)nnc2n1 | -8.91% |
| C=CCn1c(O)c(C(C)=NCCCn2ccnc2)c(=O)[nH]c1=O | 9.21% |
| CCN1CCCC1CNC(=S)Nc1ccc(C(C)=O)cc1 (stereo not drawn) | 5.4% |
| CC(C(O)c1cc(=O)c(OCc2ccccc2)co1)[N+](=O)[O-] (stereo not drawn) | 14.5% |
| Cc1ccc(-c2noc(CN(C(=O)C(c3ccccc3)c3ccccc3)C(C)C)n2)cc1 | 9.75% |
| COc1ccc(-c2nn(-c3ccccc3)cc2C(N)=O)cc1OC | 6.12% |
| Oc1c(C=Nc2cccc3nsnc23)ccc2ccccc12 | 23.8% |
| COc1ccccc1N1CCN(C(=O)c2ccc(Br)s2)CC1.Cl | -46.3% |
| Cc1cc(C(=O)N2CCN(c3ccccc3O)CC2)c(C)o1 | -16.9% |
| O=C(CSc1ncn[nH]1)N1N=C2/C(=C/c3ccco3)CCCC2C1c1ccco1 (stereo not drawn) | -22% |
| O=C(CCn1nnc2ccccc21)N1CCN(c2ccccc2)CC1 | 0.88% |
| Cc1c(OC(C)C(=O)NC2CC(C)(C)NC(C)(C)C2)ccc2c3c(c(=O)oc12)CCC3 (stereo not drawn) | 12.5% |
| Cc1cccc(CN2CCN(CC(=O)NCc3cccs3)C2=O)c1 | -13.8% |
| Cn1c(CNC(=O)c2ccccc2F)nnc1SCC(=O)c1ccccc1 | 6.09% |
| C=CCn1c(-c2csc(-c3ccc(OC)c(OC)c3)n2)n[nH]c1=S | 16.2% |
| COc1ccccc1/C=C/C(=O)NCC(=O)N1CCC(N(C)C2CCCC2)CC1 | -35% |
| Cc1ccc(CS(=O)Cc2ccc(C(=O)NC3CCCC(C)C3C)o2)cc1 (stereo not drawn) | -25.8% |
| Cn1nccc1C(=O)N1CCN(c2cccc(C(F)(F)F)c2)CC1 | -4.26% |
| CC(=O)N1CCN(c2ccc(NCc3ccccc3)cc2)CC1 | 5.25% |
| Cc1ccc(C(=O)N/C(=C\c2cn(S(=O)(=O)N(C)C)c3ccccc23)C(=O)N2CCCC2)cc1 | 7.23% |
| CC(C)(C)c1cc(S(=O)(=O)CCc2ccccn2)cc(C(C)(C)C)c1F | -5.4% |
